Source: PMC4738361
Results are given in words; binding and its absence hold for the method and conditions named. In cells and extracts the contact can be indirect. Some binding calls cover weakened binding; strength is not graded here. Sequences can lack the tags named with a protein.

Legend:
Assay in all cases: co-IP; U2OS cells transfected with HA-tagged CDC6 WT, AAA, DDD or dl 93–100; total cell extracts precipitated with anti-HA resin; immunoblot for Cyclin F
[1] = molecular target: T1, HA-tagged mutant CDC6 AAA (U2OS) (human) (UniProt Q99741)
T1 sequence: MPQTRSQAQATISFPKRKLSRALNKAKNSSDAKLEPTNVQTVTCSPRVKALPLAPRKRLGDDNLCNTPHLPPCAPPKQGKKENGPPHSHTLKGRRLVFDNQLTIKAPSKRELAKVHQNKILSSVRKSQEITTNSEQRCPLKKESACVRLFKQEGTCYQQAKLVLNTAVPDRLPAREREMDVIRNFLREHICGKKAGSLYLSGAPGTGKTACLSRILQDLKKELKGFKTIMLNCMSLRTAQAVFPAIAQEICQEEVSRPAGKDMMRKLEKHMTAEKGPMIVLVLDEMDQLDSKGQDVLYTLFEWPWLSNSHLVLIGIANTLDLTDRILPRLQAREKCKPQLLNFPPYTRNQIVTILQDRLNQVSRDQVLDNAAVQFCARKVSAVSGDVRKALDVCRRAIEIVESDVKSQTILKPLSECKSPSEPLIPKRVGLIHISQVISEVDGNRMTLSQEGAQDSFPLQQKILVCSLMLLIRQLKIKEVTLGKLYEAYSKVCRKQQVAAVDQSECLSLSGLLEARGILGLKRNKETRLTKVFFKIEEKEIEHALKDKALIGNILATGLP

[2] = molecular target: T2, HA-tagged mutant CDC6 DDD (U2OS) (human) (UniProt Q99741)
T2 sequence: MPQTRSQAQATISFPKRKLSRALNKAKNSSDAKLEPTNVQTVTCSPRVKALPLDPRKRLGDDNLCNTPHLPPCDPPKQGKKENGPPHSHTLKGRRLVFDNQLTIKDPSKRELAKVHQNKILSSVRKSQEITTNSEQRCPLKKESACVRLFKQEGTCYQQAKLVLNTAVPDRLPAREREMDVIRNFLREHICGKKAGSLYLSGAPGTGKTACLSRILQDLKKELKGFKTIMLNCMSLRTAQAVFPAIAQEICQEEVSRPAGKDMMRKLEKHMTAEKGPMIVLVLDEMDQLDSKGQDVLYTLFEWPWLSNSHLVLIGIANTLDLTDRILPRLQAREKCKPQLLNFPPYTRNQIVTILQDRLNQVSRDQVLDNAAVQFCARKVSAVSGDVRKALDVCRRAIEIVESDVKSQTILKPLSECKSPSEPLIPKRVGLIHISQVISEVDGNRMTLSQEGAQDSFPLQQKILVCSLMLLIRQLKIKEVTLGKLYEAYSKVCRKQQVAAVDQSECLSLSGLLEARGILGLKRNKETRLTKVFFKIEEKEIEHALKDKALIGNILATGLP

[3] = molecular target: T3, HA-tagged mutant CDC6 dl 93–100 (U2OS) (human) (UniProt Q99741)
T3 sequence: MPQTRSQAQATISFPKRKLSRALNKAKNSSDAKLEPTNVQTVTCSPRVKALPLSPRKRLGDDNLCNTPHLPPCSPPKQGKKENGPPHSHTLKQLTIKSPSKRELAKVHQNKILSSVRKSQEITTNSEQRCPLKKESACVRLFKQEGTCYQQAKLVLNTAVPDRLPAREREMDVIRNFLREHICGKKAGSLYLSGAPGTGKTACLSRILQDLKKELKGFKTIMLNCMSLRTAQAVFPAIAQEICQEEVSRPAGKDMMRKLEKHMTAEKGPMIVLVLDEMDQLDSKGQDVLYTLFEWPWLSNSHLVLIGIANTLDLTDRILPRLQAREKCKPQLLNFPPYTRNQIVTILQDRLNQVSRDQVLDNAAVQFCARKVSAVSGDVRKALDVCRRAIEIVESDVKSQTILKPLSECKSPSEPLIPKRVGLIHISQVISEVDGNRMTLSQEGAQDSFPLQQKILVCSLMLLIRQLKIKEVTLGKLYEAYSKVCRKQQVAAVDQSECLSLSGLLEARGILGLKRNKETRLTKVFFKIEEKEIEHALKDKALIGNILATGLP

[4] = molecular target: T4, HA-tagged wild-type CDC6 (U2OS) (human) (UniProt Q99741)
T4 sequence: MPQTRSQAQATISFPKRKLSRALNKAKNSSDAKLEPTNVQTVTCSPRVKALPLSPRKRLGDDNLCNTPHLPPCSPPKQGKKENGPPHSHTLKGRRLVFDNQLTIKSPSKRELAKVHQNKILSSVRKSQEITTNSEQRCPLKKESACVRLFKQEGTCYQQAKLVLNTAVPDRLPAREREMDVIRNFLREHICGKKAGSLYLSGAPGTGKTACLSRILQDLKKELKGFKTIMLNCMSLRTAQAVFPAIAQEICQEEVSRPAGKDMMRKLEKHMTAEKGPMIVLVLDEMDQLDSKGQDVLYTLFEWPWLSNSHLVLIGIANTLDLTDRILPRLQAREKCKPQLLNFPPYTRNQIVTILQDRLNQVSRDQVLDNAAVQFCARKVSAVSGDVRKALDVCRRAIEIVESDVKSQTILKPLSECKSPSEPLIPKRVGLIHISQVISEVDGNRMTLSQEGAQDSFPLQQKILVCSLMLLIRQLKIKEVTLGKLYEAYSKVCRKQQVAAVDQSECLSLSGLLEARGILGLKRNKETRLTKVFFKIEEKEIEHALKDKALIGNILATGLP

B1: Cyclin F (endogenous, U2OS cells) (protein, UniProt P41002 1-786)
chain: MGSGGVVHCRCAKCFCYPTKRRIRRRPRNLTILSLPEDVLFHILKWLSVEDILAVRAVHSQLKDLVDNHASVWACASFQELWPSPGNLKLFERAAEKGNFEAAVKLGIAYLYNEGLSVSDEARAEVNGLKASRFFSLAERLNVGAAPFIWLFIRPPWSVSGSCCKAVVHESLRAECQLQRTHKASILHCLGRVLSLFEDEEKQQQAHDLFEEAAHQGCLTSSYLLWESDRRTDVSDPGRCLHSFRKLRDYAAKGCWEAQLSLAKACANANQLGLEVRASSEIVCQLFQASQAVSKQQVFSVQKGLNDTMRYILIDWLVEVATMKDFTSLCLHLTVECVDRYLRRRLVPRYRLQLLGIACMVICTRFISKEILTIREAVWLTDNTYKYEDLVRMMGEIVSALEGKIRVPTVVDYKEVLLTLVPVELRTQHLCSFLCELSLLHTSLSAYAPARLAAAALLLARLTHGQTQPWTTQLWDLTGFSYEDLIPCVLSLHKKCFHDDAPKDYRQVSLTAVKQRFEDKRYGEISQEEVLSYSQLCAALGVTQDSPDPPTFLSTGEIHAFLSSPSGRRTKRKRENSLQEDRGSFVTTPTAELSSQEETLLGSFLDWSLDCCSGYEGDQESEGEKEGDVTAPSGILDVTVVYLNPEQHCCQESSDEEACPEDKGPQDPQALALDTQIPATPGPKPLVRTSREPGKDVTTSGYSSVSTASPTSSVDGGLGALPQPTSVLSLDSDSHTQPCHHQARKSCLQCRPPSPPESSVPQQQVKRINLCIHSEEEDMNLGLVRL
binding [1]: binds | binding [2]: binds | binding [3]: no binding | binding [4]: binds
